# Experimental data as given in PubChem BioAssay AID624172 (National Center for Advancing Translational Sciences (NCATS), 2012).
# The whole screen tested about 380,000 compounds, of which about 25 (0.007%) were called active. The shares of active, inactive and inconclusive entries below differ from those in the screen. Calls come from the whole dose curve; as a rule, active = well fitted activation curve with a large enough effect; inconclusive = small, poorly fitted or top-dose-only effect; inactive = no such curve, though single readings can be large or run the other way. No potency is given beside an inconclusive call; the fits are too rough.
# Molecular target: Glucagon-like peptide 1 receptor (Homo sapiens) (UniProt P43220)
# Assay: qHTS of GLP-1 Receptor Agonists; for activation: % of control where 0% means no effect
# Conditions: HEK293 GLP-1R CRE-luciferase, luminescence, 4-6 h, cells express a hypersensitive GLP-1R form; activation: at 45.6 µM (top of the series) unless noted
# Potency is the fitted concentration of half-maximal effect; tags give direction and shape of the fitted curve.
# Sequence of UniProt P43220 (P43220 whole entry, looked up): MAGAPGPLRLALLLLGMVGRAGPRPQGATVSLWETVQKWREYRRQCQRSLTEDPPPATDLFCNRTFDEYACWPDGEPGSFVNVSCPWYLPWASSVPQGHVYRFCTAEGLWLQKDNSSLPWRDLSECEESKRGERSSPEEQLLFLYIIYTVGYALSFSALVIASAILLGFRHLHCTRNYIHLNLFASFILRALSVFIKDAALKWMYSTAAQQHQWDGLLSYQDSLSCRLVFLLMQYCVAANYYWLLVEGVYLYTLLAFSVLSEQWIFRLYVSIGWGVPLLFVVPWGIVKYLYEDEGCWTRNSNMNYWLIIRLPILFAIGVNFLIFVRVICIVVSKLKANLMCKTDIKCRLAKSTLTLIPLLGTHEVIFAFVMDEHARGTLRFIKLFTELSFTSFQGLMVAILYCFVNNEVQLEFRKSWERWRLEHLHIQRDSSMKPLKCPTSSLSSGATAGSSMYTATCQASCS
Compound,activation,Potency
COCCN1CCn2c(nc3cc(NC(=O)Cn4nc(C)c5ccccc5c4=O)ccc32)C1,inconclusive: 47.3% [activator],
Cc1cccc(C)c1-n1nnnc1-c1nc2cc3ccccc3cc2[nH]c1=O,,"inconclusive [activator, single point]"
COc1ccc(OC)c(-c2nnc3n2N=C(c2ccc(OC(F)F)c(OCC4CC4)c2)CS3)c1,,"inconclusive [activator, partial curve, poor fit]"
CCN(CC(=O)Nc1ccccc1C(F)(F)F)C(=O)CCc1nc2ccccc2c(=O)[nH]1,,"inconclusive [activator, single point]"
CCOC(=O)c1cn(-c2ccccc2)nc1-c1ccncc1,,"inconclusive [activator, partial curve]"
N/C(=N\OC(=O)C(c1ccccc1)c1ccccc1)c1cccnc1,,"inconclusive [activator, partial curve, poor fit]"
CCc1ccc(NCc2cc3ccc(OC)cc3n(CC(=O)Nc3ccc(F)cc3F)c2=O)cc1,inactive: 2.66%,
CCn1cnc2c1c(=O)n(Cc1cccc(Br)c1)c(=O)n2Cc1ccccc1,,"inconclusive [activator, partial curve, poor fit]"
CCc1ccc(OCC2c3cc(OC)c(OC)cc3CCN2C(C)=O)cc1 (stereo unspecified),,"inconclusive [activator, partial curve]"
N#CCC(=O)N/N=C/c1cccc(Oc2ccccc2)c1,inactive: 13.3%,
C=CCN(CC=C)Cc1cc(=O)oc2cc(OC)c(Cl)cc12,inactive: 20.1%,
O=C(O)CCC(=O)N1N=C(c2cccs2)CC1c1cn(-c2ccccc2)nc1-c1ccccc1 (stereo unspecified),inactive: -3.38%,
COc1cc(NC(=S)Nc2ccc(S(=O)(=O)N3CCOCC3)cc2)cc(OC)c1OC,inactive: -5.17%,
CCCCOc1ccc2c(c1)C(=O)c1cc(O)ccc1-2,,"inconclusive [activator, single point]"
CCOc1ccc(-c2nc(CSc3nnc(N)s3)cs2)cc1OC,inactive: 6.64%,
COC(=O)c1cccc(CN2C(=O)C(C)Oc3ccc(C)cc32)c1 (stereo unspecified),inactive: 20.3%,
Cc1ccc(-n2c(=O)c3c(c4cc(C)ccc4n3C)n(CC(=O)Nc3ccc(F)cc3)c2=O)cc1,inactive: 0.391%,
Cc1noc(C)c1-c1ccc(C(=O)NCc2cccc(Cl)c2)c2occc12,,"inconclusive [activator, single point]"
COc1cc2c(cc1OC)-c1cc(N3CCCCCC3)nc(=O)n1CC2,,"inconclusive [activator, partial curve, poor fit]"
COc1cc2c(cc1OC)CN(c1ncccc1[N+](=O)[O-])CC2,,"inconclusive [activator, partial curve]"
Cc1cccc(NS(=O)(=O)c2ccccc2)n1,inactive: -0.48%,
CC1CCN(CC(=O)Nc2ccccc2C(=O)c2ccccc2)CC1,,"inconclusive [activator, single point]"
COc1ccc2nc(NC(=O)CCNC(=O)c3ccco3)sc2c1,inactive: -3.65%,
Cc1c(/C=N\NC(=O)C2COc3ccccc3O2)c2ccccc2n1C (stereo unspecified),,"inconclusive [activator, full curve]"

Compound,activation,Potency
O=C(NCc1ccco1)c1cccc2c(-c3ccc(F)c(F)c3)coc12,,"inconclusive [activator, partial curve, poor fit]"
CCc1cc2c3c(c(=O)oc2cc1OCC(=O)OC)CCCC3,,"inconclusive [activator, single point]"
Cc1ccc(NC2Sc3ccccc3NC2=O)cc1Cl (stereo unspecified),,"inconclusive [activator, single point]"
CCn1c(SCC(=O)N2CCCCC2C)nc2ccsc2c1=O (stereo unspecified),,"inconclusive [activator, partial curve, poor fit]"
O=C(CSc1nc(O)c(C2CCCCC2)c(=O)[nH]1)Nc1ccccc1Cl,inactive: 0.626%,
O=[N+]([O-])c1cc(S(=O)(=O)C(F)(F)F)ccc1N1CCN(c2ccccc2)CC1,,"inconclusive [activator, single point]"
COc1cccc(C(=O)Nc2cc(C)nn2-c2ccccc2)c1OC,,"inconclusive [activator, single point]"
O=C(CSc1nnc(-c2ccccc2Br)o1)N1CCc2ccccc2C1,,"inconclusive [activator, partial curve, poor fit]"
COc1ccc([C@H]2CC(=O)C=C(/C=C/Cc3ccccc3)C2)cc1,inactive: -3.43%,
S=c1[nH]nc(-c2cccs2)n1C1CCCCC1,inactive: -2.03%,
CCC[C@@H](CNC)NC[C@H](Cc1ccccc1)NCCCCc1ccccc1,inactive: -7.03%,
CCOC(=O)CNC1CC(=O)N(c2ccc(Br)cc2)C1=O (stereo unspecified),inactive: -4.14%,
CN1CCN(c2nc(-c3ccc(Cl)cc3Cl)nc3ccccc23)CC1,,"inconclusive [activator, partial curve, poor fit]"
c1csc(-c2ccc3ccccc3n2)c1,,"inconclusive [activator, partial curve, poor fit]"
COCCNc1nc(Nc2ccc(C)cc2C)c2sccc2n1,,"inconclusive [activator, partial curve, poor fit]"
c1ccc(Oc2ncnc3sccc23)cc1,,"inconclusive [activator, single point]"
COc1ccccc1OCC(=O)Nc1sc2c(c1C(=O)NCC1CCCO1)CCC2 (stereo unspecified),,"inconclusive [activator, single point]"
CCOC(=O)C(CC(=O)Nc1nc(C(C)=O)c(C)s1)C(C)c1ccccc1 (stereo unspecified),,"inconclusive [activator, partial curve, poor fit]"
O=C(CCCl)Nc1nc2c(s1)CCc1ccccc1-2,,"inconclusive [activator, partial curve, poor fit]"
Cc1ccccc1Cn1nc(C)c(NC(=O)/C=C/c2cnn(C)c2)c1C,,"inconclusive [activator, single point]"
O=C1c2ccccc2NC(c2ccc(-c3cccs3)o2)N1O (stereo unspecified),inactive: 0.012%,
CCC(=O)O[C@]1(C(=O)CCl)[C@@H](C)CC2C3C[C@H](F)C4=CC(=O)C=CC4(C)[C@@]3(F)C(O)CC21C (stereo partly specified),inactive: -0.779%,
Cc1nc(NCc2ccccn2)c2c3c(sc2n1)CCCC3,,"inconclusive [activator, single point]"
Cc1c(C(=O)N(C)C)sc(NC(=O)c2cc([N+](=O)[O-])cc([N+](=O)[O-])c2)c1C#N,inactive: -4.76%,

Compound,activation,Potency
COc1ccc(/C=C2/Sc3ccc(C(=O)NCCCN4CCOCC4)cc3NC2=O)cc1OC,,"inconclusive [activator, partial curve, poor fit]"
COc1ccc(C2SCC(=O)N2CC23CC4CC(CC(C4)C2)C3)cc1 (stereo unspecified),,"inconclusive [activator, partial curve, poor fit]"
O=c1c2ccc(F)cc2sn1-c1ccccc1,inactive: 4.23%,
CCN1C(=O)[C@H]2[C@@H](c3ccc(OC)cc3)N[C@]3(CCCN(Cc4ccc(Br)cc4)C3=O)[C@H]2C1=O,inactive: -5.98%,
O=C(Nc1nn[nH]n1)c1cc(-c2ccc(Cl)c(Cl)c2Cl)nc2ccccc12,inactive: -4.51%,
O=C(c1cc(COc2c(F)cccc2F)on1)N1CCC(c2ccccc2Cl)C1 (stereo unspecified),,"inconclusive [activator, partial curve, poor fit]"
CCN(CC)c1ncn(Cc2c(Cl)cccc2Cl)c2ncnc1-2,,"inconclusive [activator, single point]"
CCCOc1ccc2ccccc2c1/C=N/n1c(C)nnc1-n1nc(C)cc1C,,"inconclusive [activator, single point]"
Cc1cccc(Nc2nc3c(c(=O)n(C)c(=O)n3C)n2Cc2ccccc2)c1,,"inconclusive [activator, full curve, poor fit]"
CCOC(=O)c1sc2nc(N3CCOCC3)c3c(c2c1N)CCC3,,"inconclusive [activator, partial curve]"
CCc1ccccc1N(CC)C(=O)CCc1nc(-c2ccc(C)cc2)no1,inactive: 5.93%,
CC(C)(C)C(=O)NC(=S)NNC(=O)c1ccncc1,inactive: 1.84%,
CCOc1ccccc1NC(=O)CSc1ccc(-c2sc(C)nc2C)nn1,,"inconclusive [activator, partial curve, poor fit]"
COc1ccc(-c2c(C)nn3c(N)c(-c4ccccc4)cnc23)cc1OC,,"inconclusive [activator, single point]"
Fc1cc(F)c2nc(Nc3nc4cc5c(cc4s3)OCO5)sc2c1,inactive: -8.94%,
CCN1CCOC(=O)C1CC(=O)Nc1ccc(C)c(Cl)c1 (stereo unspecified),inactive: -1.8%,
CCN1CCN(c2nc3sc4c(c3c(=O)n2-c2ccc(OC)cc2)CCCCC4)CC1,,"inconclusive [activator, single point]"
Cc1ccc(N(CC(=O)Nc2ccc(F)cc2F)S(=O)(=O)c2cccs2)cc1,inactive: -4.07%,
COC(=O)Cc1c(C)c2ccc(OCc3nn[nH]n3)cc2oc1=O,,"inconclusive [activator, partial curve, poor fit]"
COc1ccc(F)cc1-c1cc(NC=O)c2ncc(-c3cc(OC)c(OC)c(OC)c3)n2c1,,"inconclusive [activator, partial curve, poor fit]"
COC(=O)c1ccc(NC(=O)CN2CCN(CC#N)CC2)cc1,inactive: 0.315%,
COc1ccc(N2C(=O)CS(=O)(=O)C23C(=O)N(Cc2ccccc2F)c2ccccc23)cc1Cl (stereo unspecified),inactive: -4.49%,
COCCNC(=O)c1cc(-c2cccnc2)nc2ccc(Br)cc12,inactive: -7.46%,
